Several values for one entry are separate records, joined by “and”; a condition that tells them apart may be missing. Identical values can stand only once.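 Assay format: 96-well plates, 48-hour exposure. GI50 is the concentration that inhibits growth by half. The concentration for full growth arrest is given as TGI.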
System: NCI-H322M lung
Assay: NCI tumour cell line growth inhibition, 48 h

Compared with `C=C(C=O)[C@@H]1CC[C@]2(C(=O)O)CC[C@]3(C)C(CC[C@@H]4[C@@](C)(CCC#N)[C@H](C(=C)C=O)CC[C@]43C)[C@@H]12` (stereo partly drawn), `CC(=O)O[C@@H]1C(=O)N(c2cnccn2)[C@H]1c1ccccc1[N+](=O)[O-]` is 17-fold lower in GI50: 11200 nM for the first, 658 nM for the second.

`O=C(Nc1cccc(Cl)c1)Nc1nc2ccc([N+](=O)[O-])cc2o1` gave a GI50 of 3420 nM.

First: C=C(C=O)[C@@H]1CC[C@]2(C(=O)O)CC[C@]3(C)C(CC[C@@H]4[C@@](C)(CCC#N)[C@H](C(=C)C=O)CC[C@]43C)[C@@H]12 (stereo partly drawn)
Second: CC(=O)O[C@@H]1C(=O)N(c2cnccn2)[C@H]1c1ccccc1[N+](=O)[O-]
The TGI of the first is lower: 24.9 µM for the first, > 100 µM for the second.

With `O=C(Nc1cccc(Cl)c1)Nc1nc2ccc([N+](=O)[O-])cc2o1` the TGI was > 100 µM.

`O=C(NNc1nc2cc(F)cc(F)c2n2cccc12)c1cccnn1` was tested, and the GI50 was 244 nM and 183 nM.

In the case of `O=C(NNc1nc2cc(F)cc(F)c2n2cccc12)c1cccnn1`, the TGI is reported as 30 µM and 35.4 µM.

From PubChem BioAssay (NCI)
